Source: article PMC4336329 (PLoS ONE, 2015)
Out of some 310,000 compounds screened, about 2,200 (0.71%) showed an effect of 50% or more. The effect is printed as a negative number. This is one part of the list.

molecular target: human ether-à-go-go-related gene (hERG) potassium channel (human, UniProt Q12809); assay: primary screen, population patch clamp on CHO cells stably expressing hERG
Sequence (Q12809 whole entry, looked up): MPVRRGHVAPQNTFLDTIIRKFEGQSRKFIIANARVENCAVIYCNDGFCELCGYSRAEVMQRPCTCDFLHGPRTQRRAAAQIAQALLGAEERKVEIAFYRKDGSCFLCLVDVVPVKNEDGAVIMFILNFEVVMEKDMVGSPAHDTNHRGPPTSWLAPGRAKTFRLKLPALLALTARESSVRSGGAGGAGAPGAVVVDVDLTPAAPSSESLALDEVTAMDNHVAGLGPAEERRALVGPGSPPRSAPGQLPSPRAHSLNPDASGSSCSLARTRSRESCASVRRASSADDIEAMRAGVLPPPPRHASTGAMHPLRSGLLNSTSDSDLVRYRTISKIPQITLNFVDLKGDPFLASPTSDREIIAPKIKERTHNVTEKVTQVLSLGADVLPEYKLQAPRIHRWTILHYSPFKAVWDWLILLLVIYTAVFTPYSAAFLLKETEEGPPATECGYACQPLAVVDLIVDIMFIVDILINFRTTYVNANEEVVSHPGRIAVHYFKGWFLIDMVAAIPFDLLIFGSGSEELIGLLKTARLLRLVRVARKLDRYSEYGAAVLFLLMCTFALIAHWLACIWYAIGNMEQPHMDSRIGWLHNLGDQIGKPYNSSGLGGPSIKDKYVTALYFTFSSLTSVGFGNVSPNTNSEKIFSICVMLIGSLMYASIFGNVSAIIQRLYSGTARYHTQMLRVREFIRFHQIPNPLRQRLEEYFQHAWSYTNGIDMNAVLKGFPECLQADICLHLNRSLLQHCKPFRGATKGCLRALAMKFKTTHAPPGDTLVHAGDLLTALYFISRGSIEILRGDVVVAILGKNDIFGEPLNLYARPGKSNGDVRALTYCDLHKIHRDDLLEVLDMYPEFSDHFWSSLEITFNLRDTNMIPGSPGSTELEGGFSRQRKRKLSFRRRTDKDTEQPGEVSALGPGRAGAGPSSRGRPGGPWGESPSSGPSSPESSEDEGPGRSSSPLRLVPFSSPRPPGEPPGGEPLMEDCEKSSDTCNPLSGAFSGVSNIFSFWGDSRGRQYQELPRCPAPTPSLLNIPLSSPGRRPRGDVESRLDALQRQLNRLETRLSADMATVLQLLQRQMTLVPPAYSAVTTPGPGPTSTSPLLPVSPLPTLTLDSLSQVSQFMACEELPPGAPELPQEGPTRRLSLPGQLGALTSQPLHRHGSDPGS

| Compound | hERG current change (%, negative = inhibition) at 1uM [%] |
| --- | --- |
| O=C1CSC(c2ccc([N+](=O)[O-])cc2)N1c1ccccc1 (centres unmarked) | -3.85 |
| Fc1ccccc1OCCCCn1cncn1 | 0.0611 |
| COCCN(C(=O)CNC(=O)c1ccco1)C(C(=O)NC1CCCC1)c1cccc(OC)c1 (centres unmarked) | 11.3 |
| CCOC(=O)c1cn2nc(Oc3ccccc3)ccc2n1 | 8.49 |
| O=C(NNC(=O)C12CC3CC(CC(O)(C3)C1)C2)c1ccccc1O | 11 |
| CN(C(=O)COc1ccccc1)c1nnc(-c2cccnc2)s1 | 5.54 |
| Cc1nnc(NC(=O)CSc2nnc(CNC(=O)c3ccccc3)o2)s1 | 11.5 |
| Cc1ccc(SCC(=O)c2cc(C)c(O)c(C)c2)cc1 | 10.6 |
| Cc1ccc(OCCCC(=O)Nc2cc(Cl)ccc2-n2cncn2)cc1 | -0.277 |
| COc1ccccc1NC(=O)C(C)Sc1nnnn1C (centres unmarked) | 5.28 |
| COCCn1c(-c2cc(OC)c(OC)c(OC)c2)nc2oc3ccccc3c(=O)c2c1=O | 12.6 |
| CC(=O)Nc1ccc(C(=O)N(C)C(C(=O)Nc2ccccc2)c2ccccn2)cc1 (centres unmarked) | 2.69 |
| CCCCNC(=O)CSc1nnc(-c2ccco2)n1C | 4.89 |
| COc1ccc(Cl)cc1C(=O)NNC(=O)c1cccnc1 | 7.2 |
| N/C(Cc1ccc([N+](=O)[O-])cc1)=N\OC(=O)c1ccc([N+](=O)[O-])cc1 | -56.7 |
| CC(C)C(NC(=O)CN1C(=O)c2ccccc2C1=O)c1ccccc1 (centres unmarked) | 10.1 |
| CCOC(=O)C1CCN(c2cc3c(cc2NC(=O)c2ccccc2F)n(C)c(=O)n3C)CC1 | 11.4 |
| CC(C)Oc1ccc(C(=O)Nc2c3c(nn2C(C)(C)C)CS(=O)(=O)C3)cc1 | 7.78 |
| CCN(CC)S(=O)(=O)c1cccc(NC(=O)COC(=O)C2=COCCO2)c1 | 5.47 |

| Compound | hERG current change (%, negative = inhibition) at 1uM [%] |
| --- | --- |
| COc1ccc(Cn2c(CCC(=O)Nc3ccc(C)cc3)nc3cccnc32)cc1 | 15.3 |
| CCN(CC(=O)Nc1cc(S(=O)(=O)N2CCCCC2)ccc1Cl)Cc1ccccc1 | 11.6 |
| COc1ccc(/C=C/C(=O)NCC2COc3ccccc3O2)cc1OC (centres unmarked) | 6.43 |
| O=C(CSc1nnc(NC(=O)C2CC2)s1)NCc1ccco1 | -1.67 |
| N#CCCn1cc(C(N)=O)c(-c2ccc3ccccc3c2)n1 | 12.9 |
| COc1cccc(CC(=O)Nc2ccccc2C(=O)N2CCOCC2)c1 | 16 |
| COc1ccc(NC(=O)CSc2nccn2-c2ccccc2)cc1 | -4.16 |
| Nc1c(C(=O)O)cnc2c(-c3ccc(Cl)cc3)cnn12 | 21.3 |
| COc1ccc([C@H]2CC(=O)C=C(c3cccc(OCc4ccccc4)c3)C2)cc1 | 10.8 |
| N#CC(C#N)=NNc1ccc(S(N)(=O)=O)cc1 | 7.93 |
| CCCn1c2ccccc2c2cnn(CC(=O)NCCCN3C(C)CCCC3C)c(=O)c21 (centres unmarked) | 5.92 |
| O=C(C(=O)N1CCN(c2ccccc2F)CC1)c1c[nH]c2ccccc12 | -0.856 |
| CC(C(=O)Nc1ccc([N+](=O)[O-])cc1Cl)N1CCN(S(=O)(=O)c2cccs2)CC1 (centres unmarked) | 4.33 |
| CCOC(=O)c1[nH]c2ccccc2c1NC(=S)Nc1cc(C)ccc1C | 3.97 |
| CC(=O)C1=C(O)C(=O)N(CCc2c[nH]c3ccccc23)C1c1ccc(O)cc1 (centres unmarked) | 8.53 |
| O=C(OCc1cccc([N+](=O)[O-])c1)c1cccnc1 | 5.71 |
| COc1ccc(NC(=O)C(Cc2cc(C)cc(C)c2)C(C)C(=O)O)cc1 (centres unmarked) | 8.32 |
| O=C(COc1coc(CN2CCN(c3ccccc3)CC2)cc1=O)NC1CCCCC1 | -13 |
| CC(C)OC(=O)c1cc2c(ccn2C)n1CC(=O)N(Cc1ccccc1)c1ccccc1 | 13 |

| Compound | hERG current change (%, negative = inhibition) at 1uM [%] |
| --- | --- |
| CC1CCC/C(=N\NC(=O)COc2ccccc2Cl)C1 (centres unmarked) | 7.24 |
| COc1ccc(N(CC(=O)NCc2cccs2)S(=O)(=O)c2c(C)n[nH]c2C)cc1 | 6.6 |
| COc1ccc(Cn2nnnc2CN2CCC(O)(c3ccc(F)cc3)CC2)cc1 | 8.9 |
| CC(=O)c1cccc(NC(=O)Nc2c(C)nn(C)c2C)c1 | 12.3 |
| COc1ccc(NC(=O)C2CCN(S(=O)(=O)c3c(C)nn(C)c3C)CC2)cc1 | 15.2 |
| O=C(NCCc1ccccc1)C(=O)c1c(-c2ccccc2)[nH]c2ccccc12 | 3.02 |
| Cc1ccc(S(=O)(=O)/C(C#N)=C/c2ccccc2OCc2ccccc2)cc1 | 4.91 |
| CC(C)(C)c1cc(CCC(=O)NCCc2ccccn2)cc(C(C)(C)C)c1O | 12.7 |
| CCN(C(=O)CSc1cc(C)c2cccc(C)c2n1)C1CCS(=O)(=O)C1 (centres unmarked) | 1.18 |
| O=C(O)CCSCC(=O)c1ccc2c(c1)OCCO2 | 8.55 |
| COc1ccc(NC(=O)CSc2nc3ccccc3c(=O)[nH]2)cc1S(N)(=O)=O | 7.16 |
| Fc1ccc(C2CC(c3ccco3)=NN2c2ccccc2)cc1 (centres unmarked) | 8 |
| Cc1cccc(-n2nnnc2SCC(=O)NCC2(N3CCOCC3)CCCCC2)c1C | -7.34 |
| Nc1c(C(=O)Nc2ccc(Cl)cc2)oc2ccccc12 | 13.8 |
| C/C(=N\NC(=S)Nc1c(C)cccc1C)c1ccc(O)cc1 | 15.6 |
| COc1ccc(CNS(=O)(=O)c2cc(-c3cc(C)no3)ccc2C(C)C)cc1 | 14.8 |
| O=C(Nc1ccc(N2CCCC2)cc1)c1cccc(Cl)c1 | 14.4 |
| CCn1cc(C(=O)Nc2ccc(F)c(F)c2)cn1 | 7.49 |
